Reference: the supplement of paper PMC8728848
Some of the results follow.

Columns and labels:
Test in all cases: glycan array binding signal (z-score within array); higher = stronger binding
Details in all cases: glycan notation: IUPAC condensed, linker removed
[1] = molecular target: Fuc(a1-2)Gal(b1-4)GlcNAc(b1-3)Gal(b1-4)GlcNAc(b1-3)Gal(b1-4)GlcNAc
Outline: (§1)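 From the Consortium for Functional Glycomics database, 3228 arrays were curated, keeping only those whose protein sequence was available. Binding is given as a within-array Z-score averaged across arrays sharing a protein sequence and across linkers. Negative Z-scores can be read as non-binding.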

[2] = molecular target: Fuc(a1-2)Gal(b1-4)GlcNAc(b1-3)GalNAc
Outline: as §1

[3] = molecular target: Fuc(a1-2)Gal(b1-4)GlcNAc(b1-3)[Fuc(a1-2)Gal(b1-4)GlcNAc(b1-6)]GalNAc
Outline: as §1

[4] = molecular target: Fuc(a1-2)Gal(b1-4)GlcNAc(b1-3)[Fuc(a1-3)[Gal(b1-4)]GlcNAc(b1-6)]Gal(b1-4)Glc
Outline: as §1

[5] = molecular target: Fuc(a1-2)Gal(b1-4)GlcNAc(b1-6)GalNAc
Outline: as §1

[6] = molecular target: Fuc(a1-2)Gal(b1-4)GlcNAc6S
Outline: as §1

[7] = molecular target: Fuc(a1-2)Gal(b1-4)[Fuc(a1-3)]GlcNAc
Outline: as §1

[8] = molecular target: Fuc(a1-2)Gal(b1-4)[Fuc(a1-3)]GlcNAc(b1-2)Man(a1-3)[Fuc(a1-2)Gal(b1-4)[Fuc(a1-3)]GlcNAc(b1-2)Man(a1-6)]Man(b1-4)GlcNAc(b1-4)[Fuc(a1-6)]GlcNAc
Outline: as §1

[9] = molecular target: Fuc(a1-2)Gal(b1-4)[Fuc(a1-3)]GlcNAc(b1-2)[Fuc(a1-2)Gal(b1-4)[Fuc(a1-3)]GlcNAc(b1-4)]Man(a1-3)[Fuc(a1-2)Gal(b1-4)[Fuc(a1-3)]GlcNAc(b1-2)Man(a1-6)]Man(b1-4)GlcNAc(b1-4)GlcNAc
Outline: as §1

[10] = molecular target: Fuc(a1-2)Gal(b1-4)[Fuc(a1-3)]GlcNAc(b1-3)Gal(b1-4)[Fuc(a1-3)]GlcNAc
Outline: as §1

[11] = molecular target: Fuc(a1-2)Gal(b1-4)[Fuc(a1-3)]GlcNAc(b1-3)Gal(b1-4)[Fuc(a1-3)]GlcNAc(b1-3)Gal(b1-4)[Fuc(a1-3)]GlcNAc
Outline: as §1

[12] = molecular target: Fuc(a1-2)Gal(b1-4)[Fuc(a1-3)]GlcNAc(b1-3)GalNAc
Outline: as §1

[13] = molecular target: Fuc(a1-2)Gal(b1-4)[Fuc(a1-3)]GlcNAc(b1-3)[Neu5Ac(a2-6)Gal(b1-4)GlcNAc(b1-6)]Gal(b1-4)Glc
Outline: as §1

[14] = molecular target: Fuc(a1-2)Gal3S(b1-4)GlcNAc
Outline: as §1

[15] = molecular target: Fuc(a1-2)Gal6S(b1-3)GlcNAc
Outline: as §1

[16] = molecular target: Fuc(a1-2)Gal6S(b1-3)GlcNAc6S
Outline: as §1

Fuc(a1-2)Gal6S(b1-4)Glc = molecular target: Fuc(a1-2)Gal6S(b1-4)Glc
Outline: as §1

[17] = molecular target: Fuc(a1-2)Gal6S(b1-4)Glc6S
Outline: as §1

Fuc(a1-2)[Gal(a1-3)]Gal = molecular target: Fuc(a1-2)[Gal(a1-3)]Gal
Outline: as §1

[18] = molecular target: Fuc(a1-2)[Gal(a1-3)]Gal(b1-3)GalNAc
Outline: as §1

[19] = molecular target: Fuc(a1-2)[Gal(a1-3)]Gal(b1-3)GalNAc(b1-3)Gal(a1-4)Gal(b1-4)Glc
Outline: as §1

[20] = molecular target: Fuc(a1-2)[Gal(a1-3)]Gal(b1-3)GlcNAc
Outline: as §1

[21] = molecular target: Fuc(a1-2)[Gal(a1-3)]Gal(b1-3)GlcNAc(b1-2)Man(a1-3)[Fuc(a1-2)[Gal(a1-3)]Gal(b1-3)GlcNAc(b1-2)Man(a1-6)]Man(b1-4)GlcNAc(b1-4)GlcNAc
Outline: as §1

[22] = molecular target: Fuc(a1-2)[Gal(a1-3)]Gal(b1-3)GlcNAc(b1-2)Man(a1-3)[Fuc(a1-2)[Gal(a1-3)]Gal(b1-3)GlcNAc(b1-2)Man(a1-6)]Man(b1-4)GlcNAc(b1-4)[Fuc(a1-6)]GlcNAc
Outline: as §1

[23] = molecular target: Fuc(a1-2)[Gal(a1-3)]Gal(b1-3)GlcNAc(b1-3)GalNAc
Outline: as §1

[24] = molecular target: Fuc(a1-2)[Gal(a1-3)]Gal(b1-3)GlcNAc(b1-6)GalNAc
Outline: as §1

[25] = molecular target: Fuc(a1-2)[Gal(a1-3)]Gal(b1-4)Glc
Outline: as §1

[26] = molecular target: Fuc(a1-2)[Gal(a1-3)]Gal(b1-4)GlcNAc
Outline: as §1

[27] = molecular target: Fuc(a1-2)[Gal(a1-3)]Gal(b1-4)GlcNAc(b1-2)Man
Outline: as §1

[28] = molecular target: Fuc(a1-2)[Gal(a1-3)]Gal(b1-4)GlcNAc(b1-2)Man(a1-3)[Fuc(a1-2)[Gal(a1-3)]Gal(b1-4)GlcNAc(b1-2)Man(a1-6)]Man(b1-4)GlcNAc(b1-4)GlcNAc
Outline: as §1

B1: Mermaid3 (Stilbonema majum) (protein)
chain: MGSSHHHHHHSSGLVPRGSHMAASGWLRSPQGTVVKLYRRSLSWSKADEFCKDVDGRLVVDRTADMHLFLIKNVLKEKKSRVWVGLRRTASHSRTWIWSDGTRQNEGDLDANLWLRDEPNDAAGEEECALFMYSPWEKAWGLNDYLCRGGCRNYQFICEKWIR
glycan array binding signal (z-score) [1]: -0.609 | glycan array binding signal (z-score) [2]: 0.007 | glycan array binding signal (z-score) [3]: 0.347 | glycan array binding signal (z-score) [4]: -0.185 | glycan array binding signal (z-score) [5]: 0.013 | glycan array binding signal (z-score) [6]: -0.614 | glycan array binding signal (z-score) [7]: -0.32 | glycan array binding signal (z-score) [8]: -0.641 | glycan array binding signal (z-score) [9]: -0.175 | glycan array binding signal (z-score) [10]: -0.221 | glycan array binding signal (z-score) [11]: -0.106 | glycan array binding signal (z-score) [12]: -0.366 | glycan array binding signal (z-score) [13]: -0.146 | glycan array binding signal (z-score) [14]: -0.003 | glycan array binding signal (z-score) [15]: -0.256 | glycan array binding signal (z-score) [16]: 2.47 | glycan array binding signal (z-score) (Fuc(a1-2)Gal6S(b1-4)Glc): -0.591 | glycan array binding signal (z-score) [17]: -0.662 | glycan array binding signal (z-score) (Fuc(a1-2)[Gal(a1-3)]Gal): -0.559 | glycan array binding signal (z-score) [18]: 1.47 | glycan array binding signal (z-score) [19]: -0.018 | glycan array binding signal (z-score) [20]: -0.379 | glycan array binding signal (z-score) [21]: -0.331 | glycan array binding signal (z-score) [22]: 0.272 | glycan array binding signal (z-score) [23]: -0.628 | glycan array binding signal (z-score) [24]: 0.092 | glycan array binding signal (z-score) [25]: 0.553 | glycan array binding signal (z-score) [26]: -0.174 | glycan array binding signal (z-score) [27]: -0.175 | glycan array binding signal (z-score) [28]: -0.617
